Measurements: the antibiotic and cytotoxicity screens of Wong et al. (2023)
This is one part of the list.

Tested on: HSkMC (human skeletal muscle cells)
Test: cytotoxicity call (relative viability < 0.9)
Details: 10 µM

With `COc1ccc(CN(C)C[C@H]2OCCCC[C@@H](C)Oc3ccc(NC(=O)Nc4ccc(F)cc4)cc3C(=O)N([C@@H](C)CO)C[C@@H]2C)cc1` as the compound, how does the cytotoxicity call read?
The cytotoxicity call was “inactive”.

With `C[C@H](CO)N1C[C@H](C)[C@@H](CN(C)S(=O)(=O)c2ccc(F)cc2)Oc2c(NS(=O)(=O)c3cn(C)cn3)cccc2C1=O` as the compound, how does the cytotoxicity call read?
The cytotoxicity call was “inactive”.

With `C[C@@H]1CCCCO[C@@H](CN(C)Cc2ccncc2)[C@@H](C)CN([C@@H](C)CO)C(=O)c2cc(NS(C)(=O)=O)ccc2O1` as the compound, how does the cytotoxicity call read?
The cytotoxicity call was “inactive”.

Which cytotoxicity call does the source give for `CC[N+](CC)(CC(=O)Nc1c(C)cccc1C)Cc1ccccc1.O=C([O-])c1ccccc1` here?
The cytotoxicity call was “inactive”.

How did the cytotoxicity call turn out when `C[C@H]1CN([C@@H](C)CO)C(=O)c2cccc(NS(=O)(=O)c3cccs3)c2O[C@@H]1CN(C)Cc1ccncc1` was run?
The cytotoxicity call was “inactive”.

`C=CCSCC(N)C(=O)O` (stereo unspecified) was tested. Which cytotoxicity call did it give?
The cytotoxicity call was “inactive”.

`CC(C)NC(=O)Nc1ccc2c(c1)C(=O)N([C@H](C)CO)C[C@@H](C)[C@@H](CN(C)C(=O)Nc1ccc(C(F)(F)F)cc1)OCCCC[C@@H](C)O2` was tested. Which cytotoxicity call did it give?
Its cytotoxicity call is “inactive”.

Which cytotoxicity call does the source give for `N=C(N)Nc1nc(CSCC/C(N)=N\S(N)(=O)=O)cs1` here?
Its cytotoxicity call is “inactive”.

`COc1ccc(S(=O)(=O)N(C)C[C@H]2Oc3ccc(NC(=O)C4CC4)cc3CC(=O)N([C@H](C)CO)C[C@H]2C)cc1` was tested. Which cytotoxicity call did it give?
Its cytotoxicity call is “inactive”.

How did the cytotoxicity call turn out when `O=C1C[C@H]2[C@@H](CCN2c2cnccn2)N1` was run?
Its cytotoxicity call is “inactive”.

Which cytotoxicity call does the source give for `Cc1ccc(S(=O)(=O)Nc2ccc3c(c2)C(=O)N([C@H](C)CO)C[C@@H](C)[C@H](CN(C)S(=O)(=O)c2ccc(F)cc2)O3)cc1` here?
The cytotoxicity call was “inactive”.

Tested on: HepG2
Test: cytotoxicity call (relative viability < 0.9)
Details: 10 µM

Which cytotoxicity call does the source give for `C[C@H]1CN([C@@H](C)CO)C(=O)c2cc(NC(=O)Cn3cnnn3)ccc2O[C@@H]1CN(C)C(=O)Nc1ccc(C(F)(F)F)cc1` here?
The cytotoxicity call was “inactive”.

How did the cytotoxicity call turn out when `C[C@H](CO)N1C[C@H](C)[C@@H](CN(C)Cc2ccccc2)Oc2c(NC(=O)c3ccc(-c4nccs4)cc3)cccc2C1=O` was run?
Its cytotoxicity call is “inactive”.

`NC(=O)[C@@H]1CCCN1C(=O)[C@H](Cc1c[nH]cn1)NC(=O)[C@@H]1CCC(=O)N1` was tested. Which cytotoxicity call did it give?
The cytotoxicity call was “inactive”.

Which cytotoxicity call does the source give for `CC(C)NC(=O)N(C)C[C@H]1OCCCC[C@@H](C)Oc2ccc(NC(=O)Nc3ccc(F)cc3)cc2C(=O)N([C@@H](C)CO)C[C@H]1C` here?
The cytotoxicity call was “inactive”.

How did the cytotoxicity call turn out when `NC(=O)CCN1C(=O)[C@@H]2[C@@H](C1=O)[C@@H]1C=C[C@@H]2C1` was run?
The cytotoxicity call was “inactive”.

Which cytotoxicity call does the source give for `O=C(C[C@@H]1CC[C@H]2[C@@H](COC[C@@H](O)CN2C(=O)Nc2cccc(Cl)c2)O1)NCc1ccccc1F` here?
The cytotoxicity call was “inactive”.

With `C[C@H](CO)N1C[C@H](C)[C@H](CN(C)Cc2ccc(Cl)c(Cl)c2)OCCCC[C@H](C)Oc2ccc(NC(=O)Nc3ccc(F)cc3)cc2C1=O` as the compound, how does the cytotoxicity call read?
The cytotoxicity call was “active”.

For `Cc1noc(C)c1NC(=O)N(C)C[C@@H]1Oc2ccc(NS(=O)(=O)c3cccs3)cc2CC(=O)N([C@@H](C)CO)C[C@@H]1C`, which cytotoxicity call is on record?
The cytotoxicity call was “inactive”.

With `C[C@H]1CN([C@@H](C)CO)C(=O)c2cc(NC(=O)Cn3cnnn3)ccc2O[C@@H]1CN(C)C(=O)NC1CCCCC1` as the compound, how does the cytotoxicity call read?
Its cytotoxicity call is “inactive”.

How did the cytotoxicity call turn out when `C[C@@H]1CCCCO[C@H](CN(C)C(=O)Nc2cccc3ccccc23)[C@H](C)CN([C@@H](C)CO)C(=O)c2cc(NS(=O)(=O)c3ccc(F)cc3)ccc2O1` was run?
The cytotoxicity call was “active”.

How did the cytotoxicity call turn out when `C[C@@H]1CN([C@H](C)CO)C(=O)c2cc(NC(=O)Nc3ccc4c(c3)OCO4)ccc2O[C@H]1CN(C)Cc1ccc(Oc2ccccc2)cc1` was run?
The cytotoxicity call was “inactive”.

`O=C(O)CCCCC(=O)O` was tested. Which cytotoxicity call did it give?
The cytotoxicity call was “inactive”.

With `Cc1ccc(S(=O)(=O)N(C)C[C@H]2Oc3c(NC(=O)Nc4ccc(C(F)(F)F)cc4)cccc3C(=O)N([C@H](C)CO)C[C@H]2C)cc1` as the compound, how does the cytotoxicity call read?
Its cytotoxicity call is “inactive”.

With `COc1ccc(S(=O)(=O)N(C)C[C@H]2Oc3ncc(C#CC4(O)CCCC4)cc3C(=O)N([C@@H](C)CO)C[C@H]2C)cc1` as the compound, how does the cytotoxicity call read?
The cytotoxicity call was “inactive”.

`CC1COc2c(C3(N)CC3)c(F)cc3c(=O)c(C(=O)O)cn1c23.CS(=O)(=O)O` (stereo unspecified) was tested. Which cytotoxicity call did it give?
The cytotoxicity call was “inactive”.

With `CC(=O)N[C@H]1CC[C@@H](CCNC(=O)C2CC2)O[C@H]1CO` as the compound, how does the cytotoxicity call read?
Its cytotoxicity call is “inactive”.

For `C[C@@H]1CN([C@H](C)CO)C(=O)c2cc(C3=CCCCC3)cnc2O[C@H]1CN(C)C(=O)CN1CCOCC1`, which cytotoxicity call is on record?
The cytotoxicity call was “active”.

`Cc1noc(C)c1S(=O)(=O)Nc1ccc2c(c1)C(=O)N([C@H](C)CO)C[C@@H](C)[C@@H](CN(C)S(=O)(=O)c1c(C)noc1C)O2` was tested. Which cytotoxicity call did it give?
Its cytotoxicity call is “inactive”.

How did the cytotoxicity call turn out when `C[C@H]1CN([C@@H](C)CO)C(=O)Cc2cc(NS(C)(=O)=O)ccc2O[C@@H]1CN(C)C(=O)NC1CCCCC1` was run?
Its cytotoxicity call is “inactive”.

With `C[C@H](CO)N1C[C@H](C)[C@H](CN(C)C(=O)Cc2ccncc2)Oc2cc(C#CC3(O)CCCC3)ccc2S1(=O)=O` as the compound, how does the cytotoxicity call read?
The cytotoxicity call was “inactive”.

Which cytotoxicity call does the source give for `CN1CCN(C(=O)C[C@@H]2CC[C@H](NC(=O)Cc3ccccn3)[C@H](CO)O2)CC1` here?
Its cytotoxicity call is “inactive”.

For `O=C(Nc1ccc(C(=O)Nc2ccc(C(=O)Nc3ccc(S(=O)(=O)O)c4cc(S(=O)(=O)O)cc(S(=O)(=O)O)c34)cc2)cc1)Nc1ccc(C(=O)Nc2ccc(C(=O)Nc3ccc(S(=O)(=O)O)c4cc(S(=O)(=O)O)cc(S(=O)(=O)O)c34)cc2)cc1`, which cytotoxicity call is on record?
Its cytotoxicity call is “inactive”.

Which cytotoxicity call does the source give for `C[C@H]1CN([C@@H](C)CO)C(=O)Cc2cc(NC(=O)CCN3CCOCC3)ccc2O[C@H]1CN(C)S(=O)(=O)c1cn(C)cn1` here?
The cytotoxicity call was “inactive”.

With `C[C@@H]1CN([C@@H](C)CO)C(=O)c2cc(NS(=O)(=O)c3cn(C)cn3)ccc2O[C@@H](C)CCCCO[C@H]1CN(C)CC1CC1` as the compound, how does the cytotoxicity call read?
The cytotoxicity call was “inactive”.

`O=C1N(CCS(=O)(=O)c2ccccc2)Cc2ccccc2C[C@@]12COC(c1ccc(OCCCO)cc1)=N2` was tested. Which cytotoxicity call did it give?
The cytotoxicity call was “inactive”.

How did the cytotoxicity call turn out when `COc1ccccc1CNC(=O)C[C@H]1C[C@@H]2c3cc(NC(=O)Nc4ccc(C(F)(F)F)cc4)ccc3O[C@@H]2[C@H](CO)O1` was run?
The cytotoxicity call was “inactive”.

Which cytotoxicity call does the source give for `C[C@@H]1CN([C@@H](C)CO)C(=O)c2cc(NC(=O)Nc3ccccc3)ccc2O[C@H]1CN(C)C(=O)Nc1cccc2ccccc12` here?
The cytotoxicity call was “inactive”.

With `C[C@@H]1CN([C@@H](C)CO)C(=O)c2cc(NC(=O)CCC(F)(F)F)ccc2O[C@@H](C)CCCCO[C@@H]1CN(C)S(=O)(=O)c1ccccc1` as the compound, how does the cytotoxicity call read?
The cytotoxicity call was “inactive”.

How did the cytotoxicity call turn out when `COCC(=O)Nc1ccc2c(c1)OC[C@H](C)N(Cc1ccccc1OC)C[C@H](C)[C@H](OC)CN(C)C2=O` was run?
The cytotoxicity call was “inactive”.

For `COc1ccc(CN(C)C[C@H]2OCCCC[C@@H](C)Oc3ccc(NC(=O)Nc4ccc(F)cc4)cc3C(=O)N([C@@H](C)CO)C[C@@H]2C)cc1`, which cytotoxicity call is on record?
Its cytotoxicity call is “active”.

Which cytotoxicity call does the source give for `C[C@H](CO)N1C[C@H](C)[C@@H](CN(C)S(=O)(=O)c2ccc(F)cc2)Oc2c(NS(=O)(=O)c3cn(C)cn3)cccc2C1=O` here?
The cytotoxicity call was “inactive”.

Which cytotoxicity call does the source give for `C[C@@H]1CCCCO[C@@H](CN(C)Cc2ccncc2)[C@@H](C)CN([C@@H](C)CO)C(=O)c2cc(NS(C)(=O)=O)ccc2O1` here?
Its cytotoxicity call is “inactive”.

With `CC[N+](CC)(CC(=O)Nc1c(C)cccc1C)Cc1ccccc1.O=C([O-])c1ccccc1` as the compound, how does the cytotoxicity call read?
The cytotoxicity call was “inactive”.

For `C[C@H]1CN([C@@H](C)CO)C(=O)c2cccc(NS(=O)(=O)c3cccs3)c2O[C@@H]1CN(C)Cc1ccncc1`, which cytotoxicity call is on record?
Its cytotoxicity call is “inactive”.

With `C=CCSCC(N)C(=O)O` (stereo unspecified) as the compound, how does the cytotoxicity call read?
Its cytotoxicity call is “inactive”.

How did the cytotoxicity call turn out when `CC(C)NC(=O)Nc1ccc2c(c1)C(=O)N([C@H](C)CO)C[C@@H](C)[C@@H](CN(C)C(=O)Nc1ccc(C(F)(F)F)cc1)OCCCC[C@@H](C)O2` was run?
The cytotoxicity call was “active”.

With `N=C(N)Nc1nc(CSCC/C(N)=N\S(N)(=O)=O)cs1` as the compound, how does the cytotoxicity call read?
Its cytotoxicity call is “inactive”.

`COc1ccc(S(=O)(=O)N(C)C[C@H]2Oc3ccc(NC(=O)C4CC4)cc3CC(=O)N([C@H](C)CO)C[C@H]2C)cc1` was tested. Which cytotoxicity call did it give?
Its cytotoxicity call is “inactive”.

With `O=C1C[C@H]2[C@@H](CCN2c2cnccn2)N1` as the compound, how does the cytotoxicity call read?
The cytotoxicity call was “inactive”.

How did the cytotoxicity call turn out when `Cc1ccc(S(=O)(=O)Nc2ccc3c(c2)C(=O)N([C@H](C)CO)C[C@@H](C)[C@H](CN(C)S(=O)(=O)c2ccc(F)cc2)O3)cc1` was run?
The cytotoxicity call was “inactive”.
